Substitutions are numbered along the chain they refer to. Bounds are passed on as bounds.

The source of these data is patent US20240368283A1 (published 2024).

The target of experiment [1] is T1, human FcγRIIβ (human, UniProt P31994 46-217, limits assumed).
T1 construct: also called FcγRIIb; R2b
T1 sequence (looked up): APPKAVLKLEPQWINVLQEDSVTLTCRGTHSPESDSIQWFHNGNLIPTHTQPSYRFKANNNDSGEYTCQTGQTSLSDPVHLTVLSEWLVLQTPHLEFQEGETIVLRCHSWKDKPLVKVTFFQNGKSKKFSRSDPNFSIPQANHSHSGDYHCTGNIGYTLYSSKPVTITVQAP
Kind of experiment: SPR, antibody captured on ProA/G HC30M chip, recombinant human FcγRIIβ injected (4 nM-5 uM); average kinetic KD. As to the method:
(§1) Example 52: The binding of anti-FcγRIIβ antibodies to human FcγRIIβ was evaluated. Antibodies were captured on ProA/G HC30M chip at 5 ug/mL, 1 ug/mL, and 0.2 ug/mL for 15 minutes. Six buffer injections were made over the chip followed by injections of increasing concentrations of recombinant human FcγRIIβ (4 nm-5 uM). The association was measured during each injection for 5 minutes and the dissociation was measured for 10 minutes post injection with buffer flow (1×HBSTE+ BSA).
Background: In SPR one partner is held on a chip, and binding of the other changes the refractive index at the surface.

Experiment [2] addresses T1, human FcγRIIβ. Kind of experiment: SPR, antibody captured on ProA/G HC30M chip, recombinant human FcγRIIβ injected (4 nM-5 uM); average steady state KD. How it is done: as §1
In experiment [3] the target is PD-1 (in the reporter cells of the PD-1 agonism assay) (Homo sapiens (Human), UniProt Q15116 25-288). Kind of experiment: cell-based or functional assay.
In experiment [4] the target is T2, Cyno PD-1 (cyno).
T2 construct: also called cynomolgus PD-1; cyPD1
Kind of experiment: BLI (Octet RED96), antibody captured on anti-human IgG Fc biosensors, PD-1 titrated; steady state (footnote *). In general terms: BLI is a label-free optical method that tracks binding on a fibre tip over time.

For experiment [5], the target named is T1, human FcγRIIβ. Kind of experiment: ratio of KD on FcγRIIα R131 to KD on FcγRIIβ, Table 29.
Experiment [6] concerns the target T3, Recombinant human PD-1 (human, UniProt Q15116 fragment, limits assumed).
T3 construct: Soluble recombinant analyte in BLI; also called huPD1
The experiment in a line: BLI (Octet RED96), antibody captured on anti-human IgG Fc biosensors, PD-1 titrated; 1:1 fit. How it is done: (§2) Affinity to PD-1 was measured using biolayer inferometry. Test articles were diluted in assay buffer to a final concentration of 5 μg/mL. Recombinant human PD-1 was titrated. Test articles were captured on anti-human IgG Fc biosensors. Association was performed in wells with human PD-1. Dissociation was performed in wells with assay buffer. Kinetic parameters (kon and kdis) and equilibrium dissociation constant (KD) were calculated from a 1:1 Langmuir global Rmax fit model using the data analysis software of the Octet RED96 version 10.0.

The target in experiment [7] is T1, human FcγRIIβ. The experiment in a line: Fc receptor affinity, Table 29 (method for Fc receptors not told in Example 43).
The target of experiment [8] is FcγRI. The description is as above.
Sequence of FcγRI (P12314 16-292): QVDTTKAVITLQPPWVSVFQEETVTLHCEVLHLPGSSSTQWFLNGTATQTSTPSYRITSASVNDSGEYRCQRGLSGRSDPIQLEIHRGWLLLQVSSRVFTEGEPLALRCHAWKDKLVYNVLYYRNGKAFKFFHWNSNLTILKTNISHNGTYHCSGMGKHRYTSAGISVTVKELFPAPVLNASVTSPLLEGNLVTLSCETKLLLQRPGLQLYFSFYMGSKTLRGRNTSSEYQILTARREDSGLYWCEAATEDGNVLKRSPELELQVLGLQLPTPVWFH
Experiment [9] addresses T2, Cyno PD-1. The experiment in a line: BLI (Octet RED96), antibody captured on anti-human IgG Fc biosensors, PD-1 titrated; 1:1 fit. How it is done:
as §2

B1: ARB58 (antibody, human IgG1, kappa)
heavy: EVQLVESGGGLVQPGRSLRLSCAASGFNFGAFAMHWVRQAPGKGLEWVSAINQGGSEVDYADSVEGRFTISRDNAKNSLYLQMNSLRAEDTAVYYCARDPGLPVSAFDIWGLGTMVTVSSASTKGPSVFPLAPSSKSTSGGTAALGCLVKDYFPEPVTVSWNSGALTSGVHTFPAVLQSSGLYSLSSVVTVPSSSLGTQTYICNVNHKPSNTKVDKKV[human IgG1 Fc with L234A L235A G237A (EU numbers) left out here]
light: DIQMTQSPSSLSASVGDRVTITCRASQDISNWLAWYQQKPGKAPKLLIYDASSLVSGVPSRFSGSGSGTDFTLTISSLQPEDVATYYCHQIYDTPPTFGGGTKVEIKRTVAAPSVFIFPPSDEQLKSGTASVVCLLNNFYPREAKVQWKVDNALQSGNSQESVTEQDSKDSTYSLSSTLTLSKADYEKHKVYACEVTHQGLSSPVTKSFNRGEC
notes: copies: 2 + 2
By Kd is commonly meant the concentration at which binding is half-saturated. For B1, the results for the dissociation constant Kd in [1] and in [2] were 207 nM and 180 nM, respectively.

B2: TA335 (antibody, human IgG1, lambda)
heavy: EVQLLESGGGLVQPGGSLRLSCAASGFTFSDYYMSWVRQAPGKGLEWVSVISNSGGSTYYTDSVKGRFTISRDNSKNTLYLQMNSLRAEDTAVYYCTKDIGMTYFDYWGQGTLVTVSS[human IgG1 constant region with G237E P238E (EU numbers) left out here]
light: QSVLTQPPSASGAPGQRVTISCSGSYSNIGNQYVSWYQQLPGTAPKLLIYLNSQRPSGVPDRFSGSKSGTSASLAISGLQSEDEADYYCAAWDDLNVWVFGGGTKLTVLGQPKAAPSVTLFPPSSEELQANKATLVCLISDFYPGAVTVAWKADSSPVKAGVETTTPSKQSNNKYAASSYLSLTPEQWKSHRSYSCQVTHEGSTVEKTVAPTECS
In general, koff refers to the rate constant with which the complex falls apart. As usually defined, the kon is the rate constant with which the complex forms. As for B2, in experiment [3], the Emax turned out to be 1.8 and the “log EC50” value is -8.2. Also, in [4], the dissociation constant (Kd) was 737 nM. Also, in experiment [5], the “R131/2b (fold)” value was determined as 2.8 fold. In addition, in [6], the equilibrium dissociation constant (Kd) amounted to 152 nM, the off-rate (koff) came out at 0.011 s⁻¹ and the on-rate constant (kon) is 69000 M⁻¹ s⁻¹. The Kd in experiment [7] is 2400 nM. Further, the “Affinity to RI relative to WT” value in [8] is more than 10 fold lower than WT.

B3: TA319 (antibody, human IgG1, lambda)
heavy: B2 heavy with G10A, L11F, M83I
light: B2 light with Q32S
In the case of B3, in experiment [3], the Emax worked out at 1.6 and the “log EC50” value is -9.8. In addition, in experiment [5], the “R131/2b (fold)” value amounted to 3.2 fold. In experiment [6], the Kd was 7.3 nM, the koff was 0.00057 s⁻¹ and the kon worked out at 72000 M⁻¹ s⁻¹. In [9], this molecule returned a Kd of 73.2 nM, a koff of 0.01 s⁻¹ and a kon of 140000 M⁻¹ s⁻¹. In experiment [7], this molecule showed a Kd of 2100 nM. Besides, the “Affinity to RI relative to WT” value in experiment [8] was more than 10 fold lower than WT.

B4: TA333 (antibody, human IgG1, lambda)
heavy: B2 heavy
light: B2 light with N31S, Q32S
For B4, in experiment [3], the Emax turned out to be 1.8 and the “log EC50” value was -9.9. In experiment [5], the “R131/2b (fold)” value is 3.5 fold. Further, in [6], the equilibrium dissociation constant (Kd) was 7.5 nM, the koff turned out to be 0.00065 s⁻¹ and the kon amounted to 86000 M⁻¹ s⁻¹. In [9], this molecule yielded a Kd of 97.9 nM, an off-rate constant (koff) of 0.0145 s⁻¹ and a kon of 148000 M⁻¹ s⁻¹. The molecule also displayed a Kd in [7] of 2300 nM. Besides, the “Affinity to RI relative to WT” value in experiment [8] is more than 10 fold lower than WT.

B5: ARB67 (antibody, human IgG1, kappa)
heavy: EVQLVESGGGLVQPGRSLRLSCAASGSTLSSYGMHWVRQAPGKGLEWVSAISYDASTIDYADSVEGRFTISRDNAKNSLYLQMNSLRAEDTAVYYCASEYGLAFDQWGQGTLVTVSSASTKGPSVFPLAPSSKSTSGGTAALGCLVKDYFPEPVTVSWNSGALTSGVHTFPAVLQSSGLYSLSSVVTVPSSSLGTQTYICNVNHKPSNTKVDKKV[human IgG1 Fc with L234A L235A G237A (EU numbers) left out here]
light: DIQMTQSPSSLSASVGDRVTITCRASQGIGSYLAWYQQKPGKAPKLLIYEASRLESGVPSRFSGSGSGTDFTLTISSLQPEDVATYYCQQGYNAPITFGGGTKVEIKRTVAAPSVFIFPPSDEQLKSGTASVVCLLNNFYPREAKVQWKVDNALQSGNSQESVTEQDSKDSTYSLSSTLTLSKADYEKHKVYACEVTHQGLSSPVTKSFNRGEC
notes: copies: 2 + 2
In the case of B5, the figures for the Kd in [1] and in experiment [2] were 3800 nM and 3500 nM, respectively.
